The whole screen tested about 39,000 compounds, of which about 220 (0.56%) showed activity. The list shows a part of the results.
Tested on: Escherichia coli K-12 BW25113
Test: relative growth (OD600 normalised to plate interquartile mean) (fraction); higher = less growth inhibition, active = 0.2 or less
Details: 50 µM; LB; incubation time: overnight (16-24 h)
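Note: static incubation at 37 °C against the wild-type strain, values averaged over two biological replicates.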

Row | SMILES | relative growth
1 | C[C@@H]1CN([C@H](C)CO)C(=O)c2cccc(NC(=O)C3CCOCC3)c2O[C@H]1CN(C)C(=O)Nc1ccccc1 | inactive: 1.01
2 | OC[C@@H](O)[C@@H](O)[C@@H](O)/C=N/Nc1ccccc1 | inactive: 1.03
3 | COc1ccc(S(=O)(=O)N(C)C[C@H]2Oc3ccc(NS(=O)(=O)c4ccc(C)cc4)cc3C(=O)N([C@H](C)CO)C[C@@H]2C)cc1 | inactive: 1.03
4 | C[C@@H]1CN([C@@H](C)CO)S(=O)(=O)c2ccc(C3=CCCCC3)cc2O[C@H]1CN(C)C(=O)C1CCOCC1 | inactive: 1.02
5 | O=C(CCCCCNC(=O)OCCCCO[C@H]1C[C@H]2C(I)=C[C@@H]1C(=O)[C@]21CCCO1)NO | inactive: 1.03
6 | COc1ccccc1/C=C/C=C1/C(=O)N(c2cc(C)cc(C)c2)[C@@H](c2cccc([N+](=O)[O-])c2)S1(=O)=O | inactive: 1.03
7 | C[C@H]1CN([C@@H](C)CO)C(=O)c2cc(C#Cc3ccccn3)cnc2O[C@H]1CN(C)C(=O)CCN1CCCCC1 | inactive: 0.999
8 | NC(=O)CCC(N)C(=O)O (stereo unspecified) | inactive: 0.953
9 | Cc1nonc1CO | inactive: 0.961
10 | C[C@@H]1CN([C@@H](C)CO)C(=O)c2cc(NS(=O)(=O)c3ccccc3)ccc2O[C@@H](C)CCCCO[C@@H]1CN(C)Cc1ccc(C(F)(F)F)cc1 | inactive: 1.06
11 | CCNc1nc2nonc2nc1NCC | inactive: 0.943
12 | N[C@@H]1CCCN(c2c(/C=C3\SC(=O)NC3=O)cccc2-c2ccccc2)C1 | inactive: 0.998
13 | CC(C)NC(=O)N(C)C[C@H]1OCc2cn(nn2)CCCC(=O)N([C@@H](C)CO)C[C@@H]1C | inactive: 0.983
14 | C[C@H]1CN([C@@H](C)CO)C(=O)Cc2cc(NC(=O)c3ccncc3)ccc2O[C@@H]1CN(C)S(=O)(=O)c1cccs1 | inactive: 0.978
15 | NCCc1nc(-c2ccccc2)cs1 | inactive: 0.904
16 | CCN1CCN(C(=O)N[C@@H](C(=O)N[C@@H]2C(=O)N3[C@@H]2SC(C)(C)[C@@H]3C(=O)O)c2ccccc2)C(=O)C1=O | inactive: 0.606
17 | CCCNC(=O)C[C@H]1CC[C@@H]2[C@H](COc3ccc(NC(=O)c4ccc5c(c4)OCO5)cc3C(=O)N2C)O1 | inactive: 1
18 | C[C@H](CO)N1C[C@H](C)[C@@H](CN(C)C(=O)Nc2ccnc(N3CCOCC3)c2)OCc2cnnn2CCCC1=O | inactive: 0.982
19 | CC(C)NC(=O)N(C)C[C@H]1Oc2ccc(NC(=O)Nc3ccc4c(c3)OCO4)cc2CC(=O)N([C@@H](C)CO)C[C@H]1C | inactive: 0.986
20 | COC(=O)[C@H](Cc1ccccc1)N1CC2=C[C@@H]([C@@H](O)CCn3cc(CCC(=O)NO)nn3)n3c(=O)n(C)c(=O)n3[C@@H]2[C@@H](C2CC2)O1 | inactive: 1.01
21 | C[C@@H]1CN([C@H](C)CO)C(=O)c2cc(NS(=O)(=O)c3ccccc3)ccc2O[C@H]1CN(C)Cc1ccncc1 | inactive: 0.988

Row | SMILES | relative growth
22 | COc1ccc(NC(=O)Nc2ccc3c(c2)C(=O)N([C@H](C)CO)C[C@H](C)[C@H](CN(C)S(=O)(=O)c2ccccc2)OCCCC[C@H](C)O3)cc1 | inactive: 0.995
23 | Cc1noc(C)c1S(=O)(=O)Nc1ccc2c(c1)C(=O)N([C@H](C)CO)C[C@H](C)[C@@H](CN(C)Cc1ccc(Cl)c(Cl)c1)OCCCC[C@H](C)O2 | inactive: 1
24 | C[C@@H]1CN([C@@H](C)CO)C(=O)c2cc(-c3cncnc3)cnc2O[C@@H]1CN(C)C(=O)Nc1ccc2c(c1)OCO2 | inactive: 0.995
25 | COC(=O)C1=CO[C@@H](O[C@@H]2O[C@H](CO)[C@@H](O)[C@H](O)[C@H]2O)/C(=C\CO)[C@@H]1CC(=O)OCCc1ccc(O)cc1 | inactive: 0.991
26 | CO[C@@H]1CN(C)C(=O)c2cc(NC(=O)NC3CCCCC3)ccc2OC[C@H](C)N(CCc2ccccc2)C[C@H]1C | inactive: 1.04
27 | C[C@@H]1CCCCO[C@@H](CN(C)C(=O)CCCN(C)C)[C@@H](C)CN([C@H](C)CO)C(=O)c2cc(NS(C)(=O)=O)ccc2O1 | inactive: 0.985
28 | COC(=O)C1=C(C)NC(C)=C(C(=O)OCCN(C)Cc2ccccc2)C1c1cccc([N+](=O)[O-])c1.Cl (stereo unspecified) | inactive: 1.04
29 | COc1ccc(S(=O)(=O)Nc2ccc3c(c2)C(=O)N([C@@H](C)CO)C[C@@H](C)[C@H](CN(C)S(C)(=O)=O)OCCCC[C@@H](C)O3)cc1 | inactive: 1.01
30 | CCOC(=O)N(C)C[C@@H]1OCc2cnnn2CCCC(=O)N([C@H](C)CO)C[C@@H]1C | inactive: 1
31 | CCCCCCCCCCCCCCCC(=O)OC[C@@H](NC(=O)C(Cl)Cl)[C@H](O)c1ccc([N+](=O)[O-])cc1 | inactive: 1.03
32 | Cc1ccc(S(=O)(=O)N(C)C[C@H]2Oc3c(NC(=O)Nc4cccc5ccccc45)cccc3C(=O)N([C@@H](C)CO)C[C@H]2C)cc1 | inactive: 0.997
33 | CC=Cc1ccc2n(c1=O)C[C@@H]1[C@@H](CO)[C@H](C(=O)NCCc3cn(C)cn3)N(C(=O)CC)[C@H]21 | inactive: 1
34 | C[C@@H]1CN([C@@H](C)CO)S(=O)(=O)c2ccc(C#CCN(C)C)cc2O[C@H]1CN(C)Cc1cccnc1 | inactive: 1
35 | COc1ccc(S(=O)(=O)Nc2ccc3c(c2)CC(=O)N([C@H](C)CO)C[C@@H](C)[C@H](CN(C)C(=O)Nc2c(C)noc2C)O3)cc1 | inactive: 0.987
36 | CCOC(=O)c1cncc(C(=O)O)c1 | inactive: 0.945
37 | C[C@@H]1CN([C@H](C)CO)C(=O)c2cccc(NC(=O)Nc3ccc(F)cc3)c2O[C@@H]1CN(C)C(=O)Nc1cccc2ccccc12 | inactive: 0.991
38 | C[C@@H]1CCCCO[C@@H](CN(C)Cc2ccc(C(=O)O)cc2)[C@@H](C)CN([C@H](C)CO)C(=O)c2cc(NS(=O)(=O)c3ccccc3)ccc2O1 | inactive: 0.996
39 | CO[C@H](CN(C)C(=O)C1CCOCC1)[C@@H](C)CN(C(=O)Nc1ccc(C(F)(F)F)cc1)[C@@H](C)CO | inactive: 0.918
40 | C[N+](C)(C)C[C@@H](O)CC(=O)O | inactive: 0.99
41 | N[C@H]1CC[C@H](CCn2cc(C3CCCCC3)nn2)O[C@@H]1CO | inactive: 1.02
42 | C[C@@H]1CN([C@H](C)CO)S(=O)(=O)c2ccc(-c3ccc(C(=O)N(C)C)cc3)cc2O[C@H]1CN(C)C(=O)Cc1ccccn1 | inactive: 1.01

Row | SMILES | relative growth
43 | CN1CCc2cccc3c2C1Cc1ccc(O)c(O)c1-3.Cl (stereo unspecified) | inactive: 1.05
44 | C[C@@H]1CN([C@H](C)CO)C(=O)c2cc(NC(=O)Nc3ccc(F)cc3)ccc2O[C@H]1CN(C)C(=O)Nc1ccc(C(F)(F)F)cc1 | inactive: 0.97
45 | O=C(C[C@@H]1CC[C@@H]2[C@H](COC[C@H](O)CN2S(=O)(=O)c2ccccc2)O1)N[C@@H]1CCN(Cc2ccccc2)C1 | inactive: 0.989
46 | Cc1noc(C)c1S(=O)(=O)N(C)C[C@@H]1OCCCC[C@@H](C)Oc2ccc(NC(=O)CCCCCC(=O)Nc3ccccc3N)cc2C(=O)N([C@H](C)CO)C[C@@H]1C | inactive: 1
47 | Cc1noc(C)c1S(=O)(=O)N(C)C[C@@H]1OCc2cn(nn2)CCCC(=O)N([C@@H](C)CO)C[C@@H]1C | inactive: 0.983
48 | Cc1ccc(S(=O)(=O)Nc2ccc3c(c2)C(=O)N([C@@H](C)CO)C[C@H](C)[C@H](CN(C)C(=O)Nc2c(C)noc2C)OCCCC[C@@H](C)O3)cc1 | inactive: 0.975
49 | C[C@@H]1CN([C@H](C)CO)C(=O)c2cc(NC(=O)CCN3CCOCC3)ccc2O[C@@H]1CN(C)S(=O)(=O)c1ccc(F)cc1 | inactive: 0.992
50 | CNC(=O)[C@H]1C[C@@H]2CN(Cc3cnn(C)c3)C[C@@H]2N1C | inactive: 0.999
51 | C[C@@H]1CCCCO[C@H](CN(C)C(=O)c2ccccc2)[C@H](C)CN([C@H](C)CO)C(=O)c2cc(NS(=O)(=O)c3ccc(Cl)cc3)ccc2O1 | inactive: 0.99
52 | C[C@@H]1CN([C@H](C)CO)C(=O)c2cc(NC(=O)C3CCCCC3)ccc2O[C@@H](C)CCCCO[C@@H]1CN(C)Cc1ccc2c(c1)OCO2 | inactive: 1.01
53 | Cc1noc(C)c1S(=O)(=O)Nc1ccc2c(c1)C(=O)N([C@@H](C)CO)C[C@H](C)[C@H](CN(C)Cc1ccc(C(F)(F)F)cc1)OCCCC[C@H](C)O2 | inactive: 0.993
54 | C[C@@H]1CN([C@@H](C)CO)C(=O)c2cc(NC(=O)NC3CCCCC3)ccc2O[C@H]1CN(C)Cc1ccc(-c2ccccc2)cc1 | inactive: 1.02
55 | C[C@@H]1CN([C@@H](C)CO)C(=O)c2cc(NC(=O)Nc3ccc(C(F)(F)F)cc3)ccc2O[C@H]1CN(C)Cc1ccc(C(F)(F)F)cc1 | inactive: 1.02
56 | C[C@@H]1CN([C@H](C)CO)C(=O)c2cccc(NS(=O)(=O)c3ccc(F)cc3)c2O[C@@H]1CN(C)S(=O)(=O)c1ccc(F)cc1 | inactive: 0.959
57 | CC(C)C(=O)Nc1cccc(Cl)c1 | inactive: 1
58 | C/C=C1\[C@H](O[C@@H]2O[C@H](CO)[C@@H](O)[C@H](O)[C@H]2O)OC=C(C(=O)OC)[C@H]1CC(=O)OC | inactive: 0.847
59 | CN1CCN(C(=O)C[C@H]2CC[C@@H]3[C@H](COc4ccc(NC(=O)C5CCOCC5)cc4C(=O)N3C)O2)CC1 | inactive: 1.04
60 | COc1ccc(CN(C)C[C@H]2OCCCC[C@@H](C)Oc3ccc(NC(=O)Nc4ccccc4)cc3C(=O)N([C@H](C)CO)C[C@H]2C)cc1 | inactive: 1.01
61 | C[C@@H]1CN([C@@H](C)CO[Si](C)(C)C(C)(C)C)C(=O)c2cc(NC(=O)Nc3ccccc3)ccc2O[C@@H](C)CCCCO[C@H]1CN(C)S(=O)(=O)c1ccc(F)cc1 | inactive: 0.998

Source: the supplement of paper PMC9446081
